Assay results reported in patent US12043670B2, “Anti-BCMA antibody-drug conjugates and methods of use” (Eisai R&D Management Co., Ltd., priority 2020, dated 2024).

B1: AB200-R1H32-R2Vk36 (antibody)
heavy: QVQLVQSGAEVKKPGSSVKVSCKASGGTFSNYWMHWVRQAPGQGLEWMGATYRSHSDTYYNQKFKSRVTITADKSTSTAYMELSSLRSEDTAVYYCARGAIYHGYDVIDNWGQGTLVTVSSASTKGPSVFPLAPSSKSTSGGTAALGCLVKDYFPEPVTVSWNSGALTSGVHTFPAVLQSSGLYSLSSVVTVPSSSLGTQTYICNVNHKPSNTKVDKKVEPKSC
light: DIQMTQSPSSLSASVGDRVTITCRASQSISSYINWYQQKPGKAPKLLIYATSNLQSGVPSRFSGSGSGTDFTLTISSLQPEDFATYYCQQFRRLPWTFGQGTKLEIKRTVAAPSVFIFPPSDEQLKSGTASVVCLLNNFYPREAKVQWKVDNALQSGNSQESVTEQDSKDSTYSLSSTLTLSKADYEKHKVYACEVTHQGLSSPVTKSFNRGEC
B2: AB200-R1H32-R2Vk12 (antibody)
heavy: QVQLVQSGAEVKKPGSSVKVSCKASGGTFSNYWMHWVRQAPGQGLEWMGATYRSHSDTYYNQKFKSRVTITADKSTSTAYMELSSLRSEDTAVYYCARGAIYHGYDVIDNWGQGTLVTVSSASTKGPSVFPLAPSSKSTSGGTAALGCLVKDYFPEPVTVSWNSGALTSGVHTFPAVLQSSGLYSLSSVVTVPSSSLGTQTYICNVNHKPSNTKVDKKVEPKSC
light: DIQMTQSPSSLSASVGDRVTITCRASQSISSYLNWYQQKPGKAPKLLIYAASSLQSGVPSRFSGSGSGTDFTLTISSLQPEDFATYYCQQYRKIPWSFGQGTKLEIKRTVAAPSVFIFPPSDEQLKSGTASVVCLLNNFYPREAKVQWKVDNALQSGNSQESVTEQDSKDSTYSLSSTLTLSKADYEKHKVYACEVTHQGLSSPVTKSFNRGEC
B3: AB200-R1H32-R2Vk9 (antibody)
heavy: QVQLVQSGAEVKKPGSSVKVSCKASGGTFSNYWMHWVRQAPGQGLEWMGATYRSHSDTYYNQKFKSRVTITADKSTSTAYMELSSLRSEDTAVYYCARGAIYHGYDVIDNWGQGTLVTVSSASTKGPSVFPLAPSSKSTSGGTAALGCLVKDYFPEPVTVSWNSGALTSGVHTFPAVLQSSGLYSLSSVVTVPSSSLGTQTYICNVNHKPSNTKVDKKVEPKSC
light: DIQMTQSPSSLSASVGDRVTITCRASQSISSYLNWYQQKPGKAPKLLIYAASSLQSGVPSRFSGSGSGTDFTLTISSLQPEDFATYYCQQYRRLPWSFGQGTKLEIKRTVAAPSVFIFPPSDEQLKSGTASVVCLLNNFYPREAKVQWKVDNALQSGNSQESVTEQDSKDSTYSLSSTLTLSKADYEKHKVYACEVTHQGLSSPVTKSFNRGEC
B4: AB200-R1H32-R2Vk13 (antibody)
heavy: QVQLVQSGAEVKKPGSSVKVSCKASGGTFSNYWMHWVRQAPGQGLEWMGATYRSHSDTYYNQKFKSRVTITADKSTSTAYMELSSLRSEDTAVYYCARGAIYHGYDVIDNWGQGTLVTVSSASTKGPSVFPLAPSSKSTSGGTAALGCLVKDYFPEPVTVSWNSGALTSGVHTFPAVLQSSGLYSLSSVVTVPSSSLGTQTYICNVNHKPSNTKVDKKVEPKSC
light: DIQMTQSPSSLSASVGDRVTITCRASQSISSYLNWYQQKPGKAPKLLIYAASSLQSGVPSRFSGSGSGTDFTLTISSLQPEDFATYYCQQFRKIPWTFGQGTKLEIKRTVAAPSVFIFPPSDEQLKSGTASVVCLLNNFYPREAKVQWKVDNALQSGNSQESVTEQDSKDSTYSLSSTLTLSKADYEKHKVYACEVTHQGLSSPVTKSFNRGEC
B5: AB200-R1H32-R2Vk11 (antibody)
heavy: QVQLVQSGAEVKKPGSSVKVSCKASGGTFSNYWMHWVRQAPGQGLEWMGATYRSHSDTYYNQKFKSRVTITADKSTSTAYMELSSLRSEDTAVYYCARGAIYHGYDVIDNWGQGTLVTVSSASTKGPSVFPLAPSSKSTSGGTAALGCLVKDYFPEPVTVSWNSGALTSGVHTFPAVLQSSGLYSLSSVVTVPSSSLGTQTYICNVNHKPSNTKVDKKVEPKSC
light: DIQMTQSPSSLSASVGDRVTITCRASQSISSYLNWYQQKPGKAPKLLIYAASSLQSGVPSRFSGSGSGTDFTLTISSLQPEDFATYYCQQFRRLPWTFGQGTKLEIKRTVAAPSVFIFPPSDEQLKSGTASVVCLLNNFYPREAKVQWKVDNALQSGNSQESVTEQDSKDSTYSLSSTLTLSKADYEKHKVYACEVTHQGLSSPVTKSFNRGEC
B6: AB200-R1H32-R2Vk5 (antibody)
heavy: QVQLVQSGAEVKKPGSSVKVSCKASGGTFSNYWMHWVRQAPGQGLEWMGATYRSHSDTYYNQKFKSRVTITADKSTSTAYMELSSLRSEDTAVYYCARGAIYHGYDVIDNWGQGTLVTVSSASTKGPSVFPLAPSSKSTSGGTAALGCLVKDYFPEPVTVSWNSGALTSGVHTFPAVLQSSGLYSLSSVVTVPSSSLGTQTYICNVNHKPSNTKVDKKVEPKSC
light: DIQMTQSPSSLSASVGDRVTITCRASQSISSYLNWYQQKPGKAPKLLIYATSNLQIGVPSRFSGSGSGTDFTLTISSLQPEDFATYYCQQFRKLPWSFGQGTKLEIKRTVAAPSVFIFPPSDEQLKSGTASVVCLLNNFYPREAKVQWKVDNALQSGNSQESVTEQDSKDSTYSLSSTLTLSKADYEKHKVYACEVTHQGLSSPVTKSFNRGEC
B7: AB200-R1H32-R2Vk10 (antibody)
heavy: QVQLVQSGAEVKKPGSSVKVSCKASGGTFSNYWMHWVRQAPGQGLEWMGATYRSHSDTYYNQKFKSRVTITADKSTSTAYMELSSLRSEDTAVYYCARGAIYHGYDVIDNWGQGTLVTVSSASTKGPSVFPLAPSSKSTSGGTAALGCLVKDYFPEPVTVSWNSGALTSGVHTFPAVLQSSGLYSLSSVVTVPSSSLGTQTYICNVNHKPSNTKVDKKVEPKSC
light: DIQMTQSPSSLSASVGDRVTITCRASQSISSYLNWYQQKPGKAPKLLIYAASSLQSGVPSRFSGSGSGTDFTLTISSLQPEDFATYYCQQYRRIPWTFGQGTKLEIKRTVAAPSVFIFPPSDEQLKSGTASVVCLLNNFYPREAKVQWKVDNALQSGNSQESVTEQDSKDSTYSLSSTLTLSKADYEKHKVYACEVTHQGLSSPVTKSFNRGEC
B8: AB200-R1H32-R2Vk3 (antibody)
heavy: QVQLVQSGAEVKKPGSSVKVSCKASGGTFSNYWMHWVRQAPGQGLEWMGATYRSHSDTYYNQKFKSRVTITADKSTSTAYMELSSLRSEDTAVYYCARGAIYHGYDVIDNWGQGTLVTVSSASTKGPSVFPLAPSSKSTSGGTAALGCLVKDYFPEPVTVSWNSGALTSGVHTFPAVLQSSGLYSLSSVVTVPSSSLGTQTYICNVNHKPSNTKVDKKVEPKSC
light: DIQMTQSPSSLSASVGDRVTITCRASQSISSYLNWYQQKPGKAPKLLIYATSNLQSGVPSRFSGSGSGTDFTLTISSLQPEDFATYYCQQFRKLPWSFGQGTKLEIKRTVAAPSVFIFPPSDEQLKSGTASVVCLLNNFYPREAKVQWKVDNALQSGNSQESVTEQDSKDSTYSLSSTLTLSKADYEKHKVYACEVTHQGLSSPVTKSFNRGEC
B9: AB200-R1H32-R2Vk46 (antibody)
heavy: QVQLVQSGAEVKKPGSSVKVSCKASGGTFSNYWMHWVRQAPGQGLEWMGATYRSHSDTYYNQKFKSRVTITADKSTSTAYMELSSLRSEDTAVYYCARGAIYHGYDVIDNWGQGTLVTVSSASTKGPSVFPLAPSSKSTSGGTAALGCLVKDYFPEPVTVSWNSGALTSGVHTFPAVLQSSGLYSLSSVVTVPSSSLGTQTYICNVNHKPSNTKVDKKVEPKSC
light: DIQMTQSPSSLSASVGDRVTITCRASQSISSYINWYQQKPGKAPKLLIYATSNLQIGVPSRFSGSGSGTDFTLTISSLQPEDFATYYCQQFRRLPWTFGQGTKLEIKRTVAAPSVFIFPPSDEQLKSGTASVVCLLNNFYPREAKVQWKVDNALQSGNSQESVTEQDSKDSTYSLSSTLTLSKADYEKHKVYACEVTHQGLSSPVTKSFNRGEC
B10: AB200-R1H32-R2Vk45 (antibody)
heavy: QVQLVQSGAEVKKPGSSVKVSCKASGGTFSNYWMHWVRQAPGQGLEWMGATYRSHSDTYYNQKFKSRVTITADKSTSTAYMELSSLRSEDTAVYYCARGAIYHGYDVIDNWGQGTLVTVSSASTKGPSVFPLAPSSKSTSGGTAALGCLVKDYFPEPVTVSWNSGALTSGVHTFPAVLQSSGLYSLSSVVTVPSSSLGTQTYICNVNHKPSNTKVDKKVEPKSC
light: DIQMTQSPSSLSASVGDRVTITCRASQSISSYINWYQQKPGKAPKLLIYATSNLQIGVPSRFSGSGSGTDFTLTISSLQPEDFATYYCQQYRRIPWTFGQGTKLEIKRTVAAPSVFIFPPSDEQLKSGTASVVCLLNNFYPREAKVQWKVDNALQSGNSQESVTEQDSKDSTYSLSSTLTLSKADYEKHKVYACEVTHQGLSSPVTKSFNRGEC
B11: AB200-R1H32-R2Vk14 (antibody)
heavy: QVQLVQSGAEVKKPGSSVKVSCKASGGTFSNYWMHWVRQAPGQGLEWMGATYRSHSDTYYNQKFKSRVTITADKSTSTAYMELSSLRSEDTAVYYCARGAIYHGYDVIDNWGQGTLVTVSSASTKGPSVFPLAPSSKSTSGGTAALGCLVKDYFPEPVTVSWNSGALTSGVHTFPAVLQSSGLYSLSSVVTVPSSSLGTQTYICNVNHKPSNTKVDKKVEPKSC
light: DIQMTQSPSSLSASVGDRVTITCRASQSISSYINWYQQKPGKAPKLLIYAASSLQSGVPSRFSGSGSGTDFTLTISSLQPEDFATYYCQQYRRLPWSFGQGTKLEIKRTVAAPSVFIFPPSDEQLKSGTASVVCLLNNFYPREAKVQWKVDNALQSGNSQESVTEQDSKDSTYSLSSTLTLSKADYEKHKVYACEVTHQGLSSPVTKSFNRGEC
B12: AB200-R1H32-R2Vk44 (antibody)
heavy: QVQLVQSGAEVKKPGSSVKVSCKASGGTFSNYWMHWVRQAPGQGLEWMGATYRSHSDTYYNQKFKSRVTITADKSTSTAYMELSSLRSEDTAVYYCARGAIYHGYDVIDNWGQGTLVTVSSASTKGPSVFPLAPSSKSTSGGTAALGCLVKDYFPEPVTVSWNSGALTSGVHTFPAVLQSSGLYSLSSVVTVPSSSLGTQTYICNVNHKPSNTKVDKKVEPKSC
light: DIQMTQSPSSLSASVGDRVTITCRASQSISSYINWYQQKPGKAPKLLIYATSNLQIGVPSRFSGSGSGTDFTLTISSLQPEDFATYYCQQYRRLPWSFGQGTKLEIKRTVAAPSVFIFPPSDEQLKSGTASVVCLLNNFYPREAKVQWKVDNALQSGNSQESVTEQDSKDSTYSLSSTLTLSKADYEKHKVYACEVTHQGLSSPVTKSFNRGEC

Assay: ThermoFluor thermostability (Tm)
Assay type: physicochemical
Settings: Fab fragment; light chain clone paired with heavy chain AB200_R1_VH32
Work on B1 yielded a Tm of 81.115 °C.
Work on B2 yielded a Tm of 77.686 °C.
Molecule B3 has a Tm of 78.040 °C.
B4 gave a Tm of 80.777 °C.
Work on B5 yielded a Tm of 80.494 °C.
Molecule B6 has a Tm of 80.573 °C.
Work on B7 yielded a Tm of 78.238 °C.
Molecule B8 has a Tm of 80.665 °C.
Work on B9 yielded a Tm of 80.803 °C.
For B10, the Tm was 77.096 °C.
B11 gave a Tm of 77.375 °C.
In the case of B12, the Tm is reported as 76.359 °C.
